Among all 310,000 compounds or so, about 14,000 (4.5%) showed an effect of 50% or more. Effects have a minus sign here. The list shows a part of the results.

The source of these data is publication PMC4336329 (PLoS ONE, 2015).
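Note: peak tail current of the secondary pulse compared with the same well before compound.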

This test deals with human ether-à-go-go-related gene (hERG) potassium channel (human, UniProt Q12809). The experiment in a line: primary screen, population patch clamp on CHO cells stably expressing hERG.
Sequence of human ether-à-go-go-related gene (hERG) potassium channel (Q12809 whole entry, looked up): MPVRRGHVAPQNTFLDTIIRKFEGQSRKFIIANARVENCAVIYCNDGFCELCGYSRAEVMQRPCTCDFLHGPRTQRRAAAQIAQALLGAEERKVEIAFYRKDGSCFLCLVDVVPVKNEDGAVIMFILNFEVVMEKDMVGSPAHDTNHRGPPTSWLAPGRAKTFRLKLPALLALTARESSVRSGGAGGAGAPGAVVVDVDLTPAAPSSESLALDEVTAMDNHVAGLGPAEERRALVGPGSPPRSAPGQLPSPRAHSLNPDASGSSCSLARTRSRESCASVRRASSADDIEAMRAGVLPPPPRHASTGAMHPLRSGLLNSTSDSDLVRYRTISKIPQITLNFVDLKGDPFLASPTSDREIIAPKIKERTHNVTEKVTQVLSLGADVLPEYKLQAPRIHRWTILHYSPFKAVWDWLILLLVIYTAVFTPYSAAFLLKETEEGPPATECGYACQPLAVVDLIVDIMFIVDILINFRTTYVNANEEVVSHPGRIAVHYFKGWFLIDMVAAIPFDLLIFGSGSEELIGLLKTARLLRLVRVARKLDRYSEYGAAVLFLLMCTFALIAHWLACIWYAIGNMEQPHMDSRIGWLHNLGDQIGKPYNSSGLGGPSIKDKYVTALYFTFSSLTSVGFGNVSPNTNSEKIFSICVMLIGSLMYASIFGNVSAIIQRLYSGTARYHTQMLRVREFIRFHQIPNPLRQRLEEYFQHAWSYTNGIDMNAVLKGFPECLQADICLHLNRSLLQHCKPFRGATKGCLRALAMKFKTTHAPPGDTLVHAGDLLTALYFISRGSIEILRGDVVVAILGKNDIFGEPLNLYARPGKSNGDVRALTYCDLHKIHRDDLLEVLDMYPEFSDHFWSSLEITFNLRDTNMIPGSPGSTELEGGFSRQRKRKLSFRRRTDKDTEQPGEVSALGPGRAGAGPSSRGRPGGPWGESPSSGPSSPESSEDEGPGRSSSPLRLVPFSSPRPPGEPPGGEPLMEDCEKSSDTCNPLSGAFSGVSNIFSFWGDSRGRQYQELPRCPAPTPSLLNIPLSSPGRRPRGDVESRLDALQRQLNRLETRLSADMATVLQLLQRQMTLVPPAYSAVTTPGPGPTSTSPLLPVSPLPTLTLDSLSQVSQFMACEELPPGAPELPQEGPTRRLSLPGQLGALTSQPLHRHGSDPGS
In the case of `S=C(c1ccc(-c2ccccc2Cl)o1)N1CCCCC1`, the “hERG current change (%, negative = inhibition) at 10uM” value is -2.18%.
Regarding `CC(C)(C)N(Cc1ccccc1)C(=O)CSc1nc2ccccc2c(=O)[nH]1`, the “hERG current change (%, negative = inhibition) at 10uM” value was found to be 7.19%.
On to `COc1ccc(C(C)=O)c(OC(=O)c2ccc(OC)c(OC)c2)c1`, for which the “hERG current change (%, negative = inhibition) at 10uM” value was determined as 2.92%.
The figure for `S=c1nc(-c2ccccc2)oc2c1CCCC2` is 4.98%; for `Cc1cc(C2C(C#N)=C(N)SC(N)=C2C#N)c(C)s1` it is 13.3%; for `Cc1ccnc(NC(=O)c2cccc(S(=O)(=O)N3CCN(c4ccc(F)cc4)CC3)c2)c1` it is -31.6%.
The value for `COc1ccc2ccccc2c1CNCCN1CCOCC1.Cl` was 14.4%.
For `COCCn1cnc2c1c(=O)n(CC(=O)O)c(=O)n2Cc1ccccc1`, the “hERG current change (%, negative = inhibition) at 10uM” value is listed as 20.4%.
The value for `Cc1cc(C)nc(Nc2ccc(C(=O)O)cc2)n1.Cl` was -5.88%; that for `CCC(C)N1C(=O)S/C(=C/c2ccc3c(c2)n(C)c(=O)n3C)C1=O` (centres unmarked) was 7.82%; that for `O=C(O)CC(SCC(=O)Nc1ccccc1)C(=O)O` (centres unmarked) was 23%.
Turning to `O=C(Nc1ccc(Cl)cc1)OC1CN2CCC1CC2` (centres unmarked), the “hERG current change (%, negative = inhibition) at 10uM” value is listed as -40.6%.
The figure for `CCN1C=C(Cc2cccs2)C2=C(C1)C(c1cccs1)C(C#N)=C(N)O2` (centres unmarked) is -16.8%.
The figure for `CCOc1ccc(S(=O)(=O)N/N=C(\C)Cc2ccc(OC)cc2)cc1` is -6.5%.
The value for `O=C1c2ccccc2S(=O)(=O)N1CCS(=O)(=O)c1ccc(F)cc1` was 13.6%; that for `CCCCNC(=O)C1C2C=CC(C2)C1C(=O)O` (centres unmarked) was 6.98%.
Take `CC1=C(C(=O)Nc2ccccc2)C(c2ccco2)NC(=O)N1` (centres unmarked): the “hERG current change (%, negative = inhibition) at 10uM” value came to 14.5%.
The value for `COC(=O)c1cccc(C23CC4(C2)[C@H](CN(CC2CCCCC2)[C@@H]4c2ccccc2)C3c2ccccc2)c1` (some centres unmarked) was -2.62%.
With `CC(NC(=O)[C@H](C)N1C(=O)N2CCc3c([nH]c4ccccc34)[C@@]2(C)C1=O)c1ccccc1` (some centres unmarked), the “hERG current change (%, negative = inhibition) at 10uM” value is reported as -13.2%.
The value for `Cc1ccc(NC(=O)Cc2ccc(Cl)cc2)nc1` was -0.845%.
The figure for `COC(=O)C1=C(c2cccc3c2S(=O)(=O)c2ccccc2-3)C[C@@H]2CC[C@H]1N2C(=O)N1CCOCC1` is -28.6%; for `Cc1ccc(C(c2nnnn2CS(=O)(=O)c2ccc(C)cc2)N2CCN(c3ncccn3)CC2)cc1` (centres unmarked) it is -0.396%; for `CCc1noc(C)c1C(=O)N1CCN(S(=O)(=O)c2ccc(C)cc2)CC1` it is -12.1%.
The value for `COc1ccc(C(=O)Nc2ccc(S(=O)(=O)N3CCc4ccccc43)cc2)cc1` was 14.6%.
As to `CC1=C(C#N)C(NC(=O)c2ccco2)(C(F)(F)F)C(=O)N1` (centres unmarked), the “hERG current change (%, negative = inhibition) at 10uM” value came out at 6.62%.
With `O=C(C1CCCN(c2ncnc3c2nc2n3CCCCC2)C1)N1CCCCC1` (centres unmarked), the “hERG current change (%, negative = inhibition) at 10uM” value is reported as -18.2%.
The figure for `CN1C(=O)CC(NNC(=O)c2ccc(Cl)cc2)C1=O` (centres unmarked) is -2.47%; for `CCSc1cc(N2CCOCC2)nc(-c2ccc(Cl)cc2)n1` it is 0.393%; for `O=[N+]([O-])c1ccc(Oc2ccc(-c3cnc4ccccc4n3)cc2[N+](=O)[O-])cc1` it is 6.13%.
The figure for `O=C(COc1ccccc1Br)c1ccc2c(c1)OCO2` is -20%.
The value for `COc1cc2c(cc1OC)C(C)N(C(=O)c1nccnc1C(=O)O)CC2` (centres unmarked) was 14.3%.
Regarding `O=S(=O)(NCC(c1cccnc1)N1CCN(Cc2ccccc2)CC1)c1ccc(F)cc1` (centres unmarked), the “hERG current change (%, negative = inhibition) at 10uM” value is reported as -65%.
The figure for `COC(=O)C1=C(C)N(CC2CC2)C(=O)N[C@H]1c1ccc(Br)cc1` is -9.4%; for `Cc1cc(NC(=O)COc2ccccc2C)ccc1NC(=O)c1ccco1` it is 4.14%.
The value for `Cc1cc(NC(=O)Cn2nc(C(=O)O)c3ccccc3c2=O)ccc1Br` was 11.7%; that for `COc1ccc(CCNC(=O)Cn2nc(C)c3c(C)n(-c4ccccc4)nc3c2=O)c(OC)c1` was -0.662%; that for `Cc1ccc(N(CCC#N)C(=O)COC(=O)c2ccccn2)cc1` was 6.47%.
For the compound `COc1ccc(/C=C/C(=O)N2CC(C)OC(C)C2)cc1OC` (centres unmarked), the “hERG current change (%, negative = inhibition) at 10uM” value is -11%.
The figure for `COc1cc2c3cc1Oc1cc(ccc1O)C[C@@H]1c4c(cc(OC)c(O)c4Oc4ccc(cc4)C[C@H]3N(C)CC2)CCN1C` is -37%; for `CCCCCCNC(=O)N1C/C=C\C(c2ccc(OC)cc2)N(Cc2ccc(F)cc2)C(=O)C1` (centres unmarked) it is -16%; for `Cc1ccc(/C=C/C(=O)OC(C)C(=O)Nc2ncc(Cl)cc2Cl)o1` (centres unmarked) it is 7.79%.
Turning to `O=C(Cc1ccccc1)NNC(=O)c1ccc(NC(=O)c2ccccc2)cc1`, the “hERG current change (%, negative = inhibition) at 10uM” value stood at 22.3%.
Consider `C#CCSc1nnc(-c2ccc([N+](=O)[O-])cc2)o1`, for which the “hERG current change (%, negative = inhibition) at 10uM” value is recorded as -5.47%.
The value for `Cc1ccc(-c2ccc(=O)n(CCC(=O)N3CCN(Cc4ccccc4)CC3)n2)cc1` was -32.9%; that for `CC(C)(C)C(=O)NC(=S)NNC(=O)c1ccc(Cl)cc1Cl` was 7.06%; that for `Cc1ccc(C(=O)N2CCCC(Nc3ccc(C(C)C)cc3)C2)cn1` (centres unmarked) was 9.22%.
The figure for `CCC(=O)Nc1ccccc1C(=O)OCc1ccc(C(=O)c2ccccc2)cc1` is -16.1%; for `CNC(=O)C1CC(=O)N(Cc2ccc3c(c2)OCO3)C(=Nc2ccc(F)cc2)S1` (centres unmarked) it is -10.8%; for `O=C(CCSc1ccc(Br)cc1)c1ccc(O)cc1` it is 17%.
The value for `COc1ccc(COc2ccsc2C(=O)Nc2ccc(Cl)c(Cl)c2)cc1` was 14.1%; that for `CCOc1ccc(NC(=O)CC2CC(C)(C)OC2=O)cc1` (centres unmarked) was -12.8%; that for `C/C(=N/O)c1c(O)c(C)c(-c2ccccc2)n(-c2ccccc2)c1=O` was 5.97%.
Take `O=C(C1COc2ccccc2O1)N1CCN(S(=O)(=O)c2cc(F)ccc2F)CC1` (centres unmarked): the “hERG current change (%, negative = inhibition) at 10uM” value is on record as -27.9%.
The figure for `COc1cc(/C=N/N2CCN(c3ccccc3OC)CC2)ccc1O` is -2.87%.
The figure for `CCCCCCn1c(=O)c(C(=O)Nc2ncccc2C)c(O)c2ccccc21` is -0.374%.
With `Cc1ccc(CCN2C(=O)CCC2(C)C(=O)NC2CCCC2)cc1` (centres unmarked), the “hERG current change (%, negative = inhibition) at 10uM” value came out at 3.63%.
The figure for `CCOc1ccc(NC(=O)COC(=O)c2cc(S(=O)(=O)N3CCCC3)ccc2C)cc1` is -4.88%.
The figure for `Clc1ccc(-c2csc(N3CCc4ccccc4C3)n2)cc1` is 14.3%; for `COc1ccccc1N1C(=O)NC(=O)/C(=C\c2cnn(-c3ccccc3)c2)C1=O` it is 10.8%.
The value for `CCCC(C)NC(=O)CSc1nc2ccc(C)cc2[nH]1` (centres unmarked) was 9.81%; that for `CCc1nnc(NC(=O)Cn2nnc(-c3ccccc3F)n2)s1` was 2.36%; that for `COc1ccc(N2CCN(C(=S)NC(=O)c3cccs3)CC2)c([N+](=O)[O-])c1` was -47.8%.
As for `N#CC1=C(N)Nc2nc3ccccc3n2C1c1ccc(Cl)cc1` (centres unmarked), the “hERG current change (%, negative = inhibition) at 10uM” value amounted to 2.87%.
Take `Cn1c(CNC(=O)Nc2ccccc2)nnc1SCc1ccccc1`: the “hERG current change (%, negative = inhibition) at 10uM” value is -12%.
With `CCOc1ccc(NC(=O)CN(C)C(=O)Cc2c(C)nc3ccccc3c2C)cc1OCC`, the “hERG current change (%, negative = inhibition) at 10uM” value is listed as -47%.
As to `Cc1ccc(S(=O)(=O)N(CC2CO2)c2ccccc2[N+](=O)[O-])cc1` (centres unmarked), the “hERG current change (%, negative = inhibition) at 10uM” value was found to be 13.1%.
The value for `COc1ccc(-c2nnc(-c3cc4ccccc4oc3=O)o2)cc1` was 9.2%; that for `CC(=O)[C@H]1CC[C@H]2[C@@H]3C=CC4=CC(=O)CC[C@@]4(C)[C@@H]3CC[C@]12C` was -4.09%.
For the compound `CCc1cccc2c(C(=O)COC(=O)c3ccccc3)c[nH]c12`, the “hERG current change (%, negative = inhibition) at 10uM” value turned out to be 11.7%.
The figure for `O=C(c1cccc(OC2CCN(Cc3cc(F)cc(F)c3)CC2)c1)N1CCCC1` is -34.9%.
Regarding `Cn1c(SCC(=O)NCc2ccco2)nnc1-c1c[nH]c2ccccc12`, the “hERG current change (%, negative = inhibition) at 10uM” value was -5.53%.
With `CC(=O)c1c(C)n(-c2ccccc2)c2ccc(O)cc12`, the “hERG current change (%, negative = inhibition) at 10uM” value worked out at 23.2%.
The figure for `CC1(C)CC(=O)C(C=NCCN2CCN(C(=O)Cc3ccc(F)cc3)CC2)=C(O)C1` is -23.5%; for `COc1ccc(CC(=O)NCc2csc(-c3cccs3)n2)cc1OC` it is 3.33%.
As to `COCCCNC(=O)CSC1=Nc2ccccc2C2=NC(CC(=O)NCc3ccccc3)C(=O)N12` (centres unmarked), the “hERG current change (%, negative = inhibition) at 10uM” value was determined as 11.6%.
Consider `CCOc1ccc(C(=O)CCN2CCCCCC2)cc1.Cl`, for which the “hERG current change (%, negative = inhibition) at 10uM” value is on record as -38.4%.
The figure for `COc1ccc(NC(=O)CN(C)CC(=O)Nc2ccc(C)c(S(=O)(=O)N3CCCCC3)c2)cc1` is -27.5%.
The value for `COc1ccc(C(=O)N(C)Cc2cnn(Cc3ccccc3)c2)cc1S(=O)(=O)N1CCOCC1` was -27%; that for `O=C(NCc1n[nH]c(=S)n1-c1ccc(Cl)c(Cl)c1)c1cccs1` was 18.1%.
The figure for `COc1ccc(OCCOc2ccc(C)nc2[N+](=O)[O-])cc1` is -1.9%; for `CC1CCN(C(=O)Cn2nc(C(F)(F)F)c3c2CCCC3)CC1` it is -4.43%; for `Cc1cnc2cc(Cl)c(Cl)cc2n1` it is 18.2%.
On to `COc1ccc(C(=O)Nc2nc(-c3cccs3)c(NC(C)=O)s2)cc1`, for which the “hERG current change (%, negative = inhibition) at 10uM” value is 13.1%.
On to `CC(C)c1ccc(N(CC(=O)NCc2ccco2)C(=O)CCC(=O)Nc2nccs2)cc1`, for which the “hERG current change (%, negative = inhibition) at 10uM” value is given as -10.5%.
Consider `O=C(CC1C(=O)NCCN1CC(c1ccccc1)c1ccccc1)NCCc1cn[nH]c1` (centres unmarked), for which the “hERG current change (%, negative = inhibition) at 10uM” value is -0.649%.
The figure for `Cc1ccc(SCCNS(C)(=O)=O)cc1` is 2.86%.
